Experimental findings from the supplement of paper PMC11417369 are described below.

The other results are listed elsewhere or left out.

For the assay, the system named is PfAP2-HC AP2 domain (GST-tagged). Nature of the assay: gcPBM binding intensity (ln(normalized median fluorescence intensity)); higher = stronger DNA binding. Put shortly:
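After 1 h on an Agilent 4 × 180k array of primer-extended double-stranded 36-bp intergenic genomic probes and negative controls, bound GST-tagged P. falciparum DNA-binding domains were detected with Alexa488 anti-GST antibody and scanned at 488 nm. The domains had been expressed in E. coli, and binding took place in 1× PBS with 1% milk, 0.2 mg/ml BSA, 0.5% salmon testes DNA and 0.03% Triton X-100. Binding intensity is the highest Masliner-normalised natural-log median intensity across replicate spots of either probe orientation.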
Take “TTTTTGTTAAAATAAATATTATAAATATATTAATAT [TGCATGCA_negctrl_site239]”: the “gcPBM binding intensity (ln)” value came out at 9.26. Next, “TACATATTTTATAGCACACAAATAATAATATGTAGT [CACACA_site688]”: 9.69. To “GTTGTGGAAAGAAGTTGTACATAAAATATTATATAA [XGTACX_site4352]” belongs 9.58. Next, “CATCATATAAATTCAAGTACAAGAAAAAGTAATATA [XGTACX_site2383]”: 9.64. Regarding “TAAATAAAGATATATACACACATATTTATATTTATA [CACACA_site6431]”, the “gcPBM binding intensity (ln)” value amounted to 9.86. Next, “AAATAATTTTTATTTGTACACACATACATATATATT [CACACA_site8240]”: 9.96; “ACAAAATTGAAATTCACACAAAAACTATACTTTTTA [CACACA_site4638]”: 9.51; “ATATCTACTTTTTTATGTACGAAAAAAATACGGATT [XGTACX_site8937]”: 9.39. To “TTATTCATAAAAACAAAAAACAAAAATGAAATAGGA [CACACA_negctrl_site1123]” belongs 9.64; to “TATGATATAATATACACACATACATATATATATATA [CACACA_site510]”, 9.75; to “TATTATGTCTAAAATAACATATTAATATATTATTTC [CACACA_negctrl_site285]”, 9.56. To “TTAATATTTTATTTCACACACATAAATGCCCCAAAC [CACACA_site1887]” belongs 9.9.

For “AGAGTTCTCCTATGCACACAAAAAACTTTCATTTAT [CACACA_site4193]”, the “gcPBM binding intensity (ln)” value stood at 9.81. Next, “AAAAAATACATACATACACACATATATATATATATA [CACACA_site913]”: 10.6; “TCCTCTTATAATTCGTGTCCACATATATCATACAAT [XGTACX_site1523]”: 9.71. Consider “ATAAAACAAATGAGTACACACACATAAAAATTGAAA [CACACA_site7949]”, for which the “gcPBM binding intensity (ln)” value amounted to 10.2. Next, “TACGGATATATATATTGTACATATATATAATATATA [XGTACX_site3156]”: 9.65; “TATATATATATTAATAGTACATATTATGTAAGCCTA [XGTACX_site2826]”: 9.87. Next, “TTTTTTTTTTTTTTTGTGCACAATATAATTTTTAAT [GTGCAC_site9747]”: 9.58; “TTTCAGACAAAAAAAAAAAAAAAAAAGAGGAGAATA [CACACA_negctrl_site254]”: 9.25; “TTATAATATATATCTGCATGTTGCTTTGGGGCTTTA [TGCATGCA_site712]”: 9.7. Next, “TATATTAAACAATATACACACATTAATGTAGACATA [CACACA_site8889]”: 9.77; “GAAAATTCTTAAGGCACACACATATAAGATATATAC [CACACA_site6410]”: 9.99; “AACCTTTTAAGAGTTGCACACGTACAAAAAAAAAAA [CACACA_site9159]”: 9.71.

For the sequence “AATAAAAAAAAAAAAAAAAAAAAAAACCTGAGGAGT [CACACA_negctrl_site1140]”, the “gcPBM binding intensity (ln)” value came to 9.52. Next, “TTTAAGCAAAGACACACACACATATTTATATTTATA [CACACA_site6295]”: 10.2; “AAACATTTATACAAAGCACACAATTTTTAACTTTTA [CACACA_site2627]”: 9.62.

Consider “TGTCAAAATATGTATACACACAATTTTTTTTTTTTT [CACACA_site2465]”, for which the “gcPBM binding intensity (ln)” value is 9.87. Next, ATTCATTTACCAATGGTGCAATATATTTTTATAATG: 9.71.

On to “TAATAAATAAAATAGAGTACAGGGATTTCATTAAAT [XGTACX_site8979]”, for which the “gcPBM binding intensity (ln)” value was determined as 9.87.

In the case of “TATATTACTTATATTTGTACACAGAAATATAAATCA [XGTACX_site13]”, the “gcPBM binding intensity (ln)” value amounted to 9.44.

As for “TTTTTCATAAGAAGCACACAAAAAATGATAGAGAAT [CACACA_site1417]”, the “gcPBM binding intensity (ln)” value turned out to be 9.74. As to “TAATATGCATAAAATTGTACAAACTTACATATAATA [XGTACX_site2752]”, the “gcPBM binding intensity (ln)” value was determined as 9.79. To “TTTTCTTGACCTATTATTCTTCTCATAGTATAATAT [GTGCAC_negctrl_site641]” belongs 9.62; to “TTCATAGAATTATATATTTTAAAAAAAAAAATAATT [CACACA_negctrl_site175]”, 9.31. To “TTTTTTATAGGACATGCATGTTGTAGAGCTGTATAT [TGCATGCA_site704]” belongs 9.59; to “AATATATTTTAATATACACACATATATGCTCTTTAA [CACACA_site9371]”, 9.82; to “TTATTTTTTTTGTGTTGTACAATTTATTACTACTAA [XGTACX_site346]”, 9.76. Next, “AAACAAATATGTAGCACACATTCACATAATATATTT [CACACA_site2335]”: 9.87; “GTATTTATAATACGGCGTACATAAAAAAAAAAAAAA [XGTACX_site3705]”: 9.41; “TTATTTATGTGTAGGGCATGCAATCGTGTTTTTAAA [TGCATGCA_site735]”: 9.72. On to “AAAAAAAAAATATATTGTACAAATAGATATGTCAAT [XGTACX_site122]”, for which the “gcPBM binding intensity (ln)” value was determined as 9.63. Take “AAAGAAAGTACCTTCACACATATAAGAATATAATAT [CACACA_site5214]”: the “gcPBM binding intensity (ln)” value was 9.67. Take “TGAAATACGAATTATTGTACTTATGTGTAAGATGGC [XGTACX_site4472]”: the “gcPBM binding intensity (ln)” value was 9.71.
